Assay results from patent US20110027291A1 (MERRIMACK PHARMACEUTICALS, published 2011).

Key:
[1] = biological target: ErbB2 on OVCAR8 and OVCAR8-HER2 cells (UniProt P04626); assay: cell-based or functional assay
ErbB2 = biological target: T1, ErbB2 (UniProt P04626 part only, limits assumed); assay: BIACore and KinExA; B1D2 single chain arm binding ErbB2
T1 construct: also called E2; HER2

ErbB3 on NCI-ADRr cells = ErbB3 on NCI-ADRr cells (UniProt P21860 20-1342, limits assumed); assay: cell-based or functional assay
ErbB3 = biological target: T2, ErbB3 (UniProt P21860 part only, limits assumed); assay: BIACore and KinExA; H3 single chain arm binding ErbB3
T2 construct: Elsewhere it speaks of the ectodomain of human ErbB3; also called E3; HER3

IC50 (printed as DR50data) of inhibition of HRG-induced pErbB3, ELISA, OVCAR8 cells, 5 nM HRG, lysis at 10 min [1]: 1.7e-09 M
koff (ErbB2): 0.00015 s⁻¹
IC50 (printed as DR50data) of inhibition of HRG-induced pErbB3, ELISA, ADrR cells, 5 nM HRG, lysis at 10 min (ErbB3 on NCI-ADRr cells): 9.4e-09 M
koff (ErbB3): 0.022 s⁻¹
kon (ErbB3): 350000 M⁻¹ s⁻¹
B1: bispecific antibody H3×B1D2 (bispecific antibody)
chain: QVQLQESGGGLVKPGGSLRLSCAASGFTFSSYWMSWVRQAPGKGLEWVANINRDGSASYYVDSVKGRFTISRDDAKNSLYLQMNSLRAEDTAVYYCARDRGVGYFDLWGRGTLVTVSSASTGGGGSGGGGSGGGGSQSALTQPASVSGSPGQSITISCTGTSSDVGGYNFVSWYQQHPGKAPKLMIYDVSDRPSGVSDRFSGSKSGNTASLIISGLQADDEADYYCSSYGSSSTHVIFGGGTKVTVLGAAS[about 600 residues skipped]AAALQVQLVQSGAEVKKPGESLKISCKGSGYSFTSYWIAWVRQMPGKGLEYMGLIYPGDSDTKYSPSFQGQVTISVDKSVSTAYLQWSSLKPSDSAVYFCARHDVGYCTDRTCAKWPEWLGVWGQGTLVTVSSGGGGSSGGGSGGGGSQSVLTQPPSVSAAPGQKVTISCSGSSSNIGNNYVSWYQQLPGTAPKLLIYDHTNRPAGVPDRFSGSKSGTSASLAISGFRSEDEADYYCASWDYTLSGWVFGGGTKLTVLG
notes: The rate constants are told for each single chain arm of the bispecific; also called H3 x B1D2; anti-ErbB3×anti-ErbB2 bispecific antibody
